Measured values as given in PubChem BioAssay (Tox21).
Several values for one entry are separate records, joined by “and”; a condition that tells them apart may be missing. Identical values can stand only once. This list was built around the results that the source calls inconclusive (neither active nor inactive); the mix of calls is not that of the screen. For some assays here: Where the call is inconclusive, the potency comes from a doubtful curve fit. Some structures have more than one record in an assay (separate samples or runs), and their calls can disagree. Activity calls are given as the source filed them. Unless noted, the call rests on the fitted dose curve; in most records, active means well fitted curve in the direction sought with a large enough effect in the repeat runs; inconclusive means weak or mixed curves; inactive means no such curve, though single readings can be large; an effect the other way counts as inactive or inconclusive.

Legend:
[1] = qHTS assay to identify small molecule antagonists of the androgen receptor (AR) signaling pathway using the MDA cell line in the presence of 0.5 nM R1881 - cell viability counter screen (AID 1259242); further: nearly all actives have a fitted effect of over 45% in size
Procedure, shortened: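 MDA-kb2 cells (MMTV-luciferase, AR/GR responsive) were treated with compounds plus 0.5 nM R1881 (final) for 16 hr at 37C, 0% CO2. Viability was then read in the same wells as live-cell protease fluorescence (CellTiter-Fluor, 30 min).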

[2] = qHTS assay to identify small molecule phospholipidosis (PLD) inducers (AID 1259344; active means well fitted curve in the direction sought with a large enough effect; inconclusive means small, poorly fitted or top-dose-only effect, or another doubt; inactive means no such curve, though single readings can be large; an effect the other way counts as inactive or inconclusive)
Procedure, shortened: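 HepG2 cells, 900/well, treated with compound plus LipidTOX Red for 24 h at 37 C; amiodarone positive and DMSO negative controls. Fixed with paraformaldehyde/Hoechst, then high-content imaging scored LipidTOX pit count and integrated intensity per well and per cell.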

[3] = qHTS assay to identify small molecule agonists of the sonic hedgehog signaling (Shh) pathway - cell viability counter screen (AID 1259366); further: nearly all actives have a fitted effect of over 50% in size
Procedure, shortened: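 CellTiter-Fluor fluorescence read-out, 1 hr at 37C, added after 23hr compound exposure. Cells: 3T3 Gli1-Luc, an NIH/3T3 clone with stably integrated Gli1-Luc reporter, plated 4hr before compound.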

[4] = qHTS assay to identify small molecule antagonists of the sonic hedgehog signaling (Shh) pathway (AID 1259369; calls by dose curve; further: nearly all actives have a fitted effect of over 45% in size)
Procedure, shortened: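 NIH/3T3-derived Gli1-Luc reporter cells plated 4 h, dosed with compound, then stimulated with conditioned medium for 24 h at 37 C. Firefly luciferase luminescence read after 30 min with detection reagent at room temperature.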

[5] = target: Estrogen receptor beta (Homo sapiens) (UniProt Q92731); test: qHTS assay to identify small molecule antagonists of the estrogen receptor beta (ER-beta) signaling pathway (AID 1259378; active means well fitted inhibition curve with a large enough effect in the signal ratio in the repeat runs, not every such curve was filed as active; inconclusive means weak or mixed curves, or effect the other way; inactive means no such curve, though single readings can be large or run the other way; the % refers to the signal ratio; on activity, negative = inhibition: on the % scale 0 is the no-effect control and ±100 the full control effect); settings: ER-beta-UAS-bla HEK293T, beta-lactamase FRET ratio, 16 h; for Potency: activity, negative = inhibition: at 92.4 µM (top of the series) unless noted
UniProt Q92731, sequence (Q92731 whole entry, looked up): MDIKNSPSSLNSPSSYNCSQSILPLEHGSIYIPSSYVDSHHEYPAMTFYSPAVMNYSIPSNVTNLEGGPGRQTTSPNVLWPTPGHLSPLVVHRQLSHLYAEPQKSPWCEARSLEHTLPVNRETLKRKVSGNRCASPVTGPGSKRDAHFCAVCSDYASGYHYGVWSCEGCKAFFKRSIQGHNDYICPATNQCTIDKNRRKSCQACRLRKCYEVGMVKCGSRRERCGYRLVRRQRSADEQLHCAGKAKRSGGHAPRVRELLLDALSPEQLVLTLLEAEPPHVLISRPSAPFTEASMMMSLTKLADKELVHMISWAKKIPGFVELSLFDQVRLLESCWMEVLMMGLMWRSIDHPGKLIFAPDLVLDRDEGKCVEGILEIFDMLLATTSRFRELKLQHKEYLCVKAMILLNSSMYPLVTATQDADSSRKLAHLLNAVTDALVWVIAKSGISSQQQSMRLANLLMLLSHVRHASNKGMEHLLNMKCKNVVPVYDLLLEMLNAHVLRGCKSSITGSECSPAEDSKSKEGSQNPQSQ
Procedure, shortened: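 ER-beta-UAS-bla HEK293T cells in 2% charcoal-stripped FBS medium treated with compound plus 1nM final 17-beta-estradiol for 16 hr at 37C. Beta-lactamase reporter read by FRET substrate fluorescence after 2 hours at room temperature.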

[6] = qHTS assay to identify small molecule HDAC inhibitors - cell viability counter screen (AID 1259365); further: nearly all actives have a fitted effect of over 50% in size
Procedure, shortened: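 HCT-116 (wild type), 1,500 cells/well, overnight 37C/5% CO2; compound in DMSO 2hr; CellTiter-Glo 30min RT; luminescence read.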

[7] = target: Thyrotropin receptor (Homo sapiens) (UniProt P16473); test: qHTS assay to identify small molecule antagonists of the thyroid stimulating hormone receptor (TSHR) signaling pathway (AID 1259385; calls by dose curve; further: nearly all actives have a fitted effect of over 20% in size); settings: TSHR-HEK293 cAMP HTRF, TSH-stimulated antagonist mode; activity change, negative = inhibition: at 92.4 µM (top of the series) unless noted
UniProt P16473, sequence (P16473 whole entry, looked up): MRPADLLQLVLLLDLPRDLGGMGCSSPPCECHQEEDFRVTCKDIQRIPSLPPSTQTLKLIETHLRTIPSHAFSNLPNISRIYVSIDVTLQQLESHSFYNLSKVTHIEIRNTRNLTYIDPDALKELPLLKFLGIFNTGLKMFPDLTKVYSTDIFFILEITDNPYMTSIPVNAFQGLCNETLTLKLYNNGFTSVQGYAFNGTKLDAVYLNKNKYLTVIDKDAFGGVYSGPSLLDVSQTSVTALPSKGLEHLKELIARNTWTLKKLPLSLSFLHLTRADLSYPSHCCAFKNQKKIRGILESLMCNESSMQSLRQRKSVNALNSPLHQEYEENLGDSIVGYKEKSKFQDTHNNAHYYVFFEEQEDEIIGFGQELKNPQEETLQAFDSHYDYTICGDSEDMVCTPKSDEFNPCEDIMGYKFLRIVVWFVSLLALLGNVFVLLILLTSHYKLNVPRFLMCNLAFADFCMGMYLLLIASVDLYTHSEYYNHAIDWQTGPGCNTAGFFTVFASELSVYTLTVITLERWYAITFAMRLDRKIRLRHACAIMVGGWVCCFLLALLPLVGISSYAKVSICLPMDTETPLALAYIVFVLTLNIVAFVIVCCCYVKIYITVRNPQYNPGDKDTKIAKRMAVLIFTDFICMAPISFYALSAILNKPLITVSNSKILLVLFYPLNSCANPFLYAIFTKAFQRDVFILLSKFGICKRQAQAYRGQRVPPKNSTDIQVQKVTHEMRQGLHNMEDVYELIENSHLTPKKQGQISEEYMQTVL
Procedure, shortened: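 TSHR-HEK293 cells (800/well) plated 18 h, then compounds with Ro20-1724 and TSH at 1.5 ng/mL final, 30 min at room temperature. cAMP quantified by HTRF (cAMP-d2/anti-cAMP-cryptate, 1 h); 15 concentrations in triplicate.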

[8] = qHTS assay to identify small molecule HDAC inhibitors (AID 1259364); further: nearly all actives have a fitted effect of over 45% in size
Procedure, shortened: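 Wild-type HCT-116 cells, plated overnight at 37 C, exposed to compounds 2 hr at 37 C; luminogenic HDAC-Glo substrate then added 30 min at room temperature. Luminescence reports relative endogenous class I/II HDAC activity.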

[9] = qHTS assay to identify small molecule antagonists of the estrogen receptor beta (ER-beta) signaling pathway - cell viability counter screen (AID 1259382); further: nearly all actives have a fitted effect of over 55% in size
Procedure, shortened: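 ER-beta-UAS-bla HEK293T cells in 2% charcoal-stripped FBS medium, treated with compound plus 1 nM 17-beta-estradiol for 16 h at 37C. Viability read by CellTiter-Glo luminescence after 30 min at room temperature in the same wells.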

[10] = qHTS assay to identify small molecule antagonists of the sonic hedgehog signaling (Shh) pathway - cell viability counter screen (AID 1259367); further: nearly all actives have a fitted effect of over 55% in size
Procedure, shortened: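 NIH/3T3-derived Gli1-Luc reporter cells, 2,000/well, plated 4 hr before compound addition, then stimulated with conditioned medium for 24 hr at 37C. Viability measured in the same wells by CellTiter-Fluor fluorescence, reagent added at 23 hr for 1 hr.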

[11] = qHTS assay to identify small molecule agonists of the sonic hedgehog signaling (Shh) pathway (AID 1259368; calls by dose curve; further: nearly all actives have a fitted effect of over 15% in size)
Procedure, shortened: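 NIH/3T3-derived 3T3Gli1-Luc cells with stably integrated Gli1-driven firefly luciferase, 2,000 cells/well, compounds added after 4 hr. Incubated 24 hr at 37C, 5% CO2; luminescence read after 30 min with luciferase reagent at room temperature.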

[12] = qHTS assay to identify small molecule agonists of the estrogen receptor beta (ER-beta) signaling pathway - cell viability counter screen (AID 1259380); further: nearly all actives have a fitted effect of over 30% in size
Procedure, shortened: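 ER-beta-UAS-bla HEK293T cells in medium with 2% charcoal-stripped FBS, pre-incubated 6 hr, then treated 16 hr at 37C. Cytotoxicity read in the same wells by CellTiter-Glo luminescence after 30 min at room temperature.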

[13] = qHTS assay to identify small molecule agonists of the androgen receptor (AR) signaling pathway in the presence of an antagonist - cell viability counter screen (AID 1259379); further: nearly all actives have a fitted effect of over 25% in size
Procedure, shortened: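 MDA-kb2 cells (MMTV-luciferase, AR/GR), 3,000/well, 5 h attachment, then 3.0 µM nilutamide (final) and compounds at 15 concentrations. Viability by CellTiter-Fluor fluorescence after 16 h at 37 °C, 0% CO2, in the reporter wells.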

[14] = target: Estrogen receptor (Homo sapiens) (UniProt P03372); test: qHTS assay to identify small molecule antagonists of the estrogen receptor alpha (ER-alpha) signaling pathway using the BG1 cell line in the presence of 0.1 nM 17-beta-estradiol (AID 1259244); further: nearly all actives have a fitted effect of over 50% in size
UniProt P03372, sequence (P03372 whole entry, looked up): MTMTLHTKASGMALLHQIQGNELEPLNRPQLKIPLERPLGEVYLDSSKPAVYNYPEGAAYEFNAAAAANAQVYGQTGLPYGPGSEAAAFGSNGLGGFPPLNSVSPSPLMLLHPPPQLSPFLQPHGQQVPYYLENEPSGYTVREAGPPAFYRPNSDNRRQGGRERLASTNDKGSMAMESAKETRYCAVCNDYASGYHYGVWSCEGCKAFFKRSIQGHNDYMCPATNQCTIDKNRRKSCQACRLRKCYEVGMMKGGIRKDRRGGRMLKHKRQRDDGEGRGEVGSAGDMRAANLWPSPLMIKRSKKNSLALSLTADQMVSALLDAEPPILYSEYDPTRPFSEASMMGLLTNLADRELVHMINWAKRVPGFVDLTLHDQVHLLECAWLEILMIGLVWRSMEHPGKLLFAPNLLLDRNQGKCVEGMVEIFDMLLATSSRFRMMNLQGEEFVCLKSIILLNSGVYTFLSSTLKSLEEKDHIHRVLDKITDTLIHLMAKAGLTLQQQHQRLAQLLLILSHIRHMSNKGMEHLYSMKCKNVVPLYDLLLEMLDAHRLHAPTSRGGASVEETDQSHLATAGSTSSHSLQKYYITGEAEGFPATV
Procedure, shortened: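 VM7Luc4E2 cells (endogenous full-length ER-alpha, 4×ERE-luciferase), kept 5 days in phenol red-free, charcoal-stripped FBS medium; 4,000 cells/well. Compounds added with 0.1 nM (final) 17beta-estradiol, 22 hr at 37C; luminescence read with ONE-Glo after 30 min.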

[15] = target: Estrogen receptor beta (Homo sapiens) (UniProt Q92731); test: qHTS assay to identify small molecule agonists of the estrogen receptor beta (ER-beta) signaling pathway (AID 1259377; active means well fitted activation curve with a large enough effect in the signal ratio in the repeat runs, not every such curve was filed as active; inconclusive means weak or mixed curves, or effect the other way; the % refers to the signal ratio); settings: ER-beta-UAS-bla HEK293T, beta-lactamase FRET ratio, 16 h; activation: at 92.4 µM (top of the series) unless noted
Procedure, shortened: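 Beta-lactamase reporter readout: fluorescence of LiveBLAzer B/G FRET substrate after 2 h at room temperature, following 16 h compound treatment of ER-beta-UAS-bla HEK293T cells at 37C in 2% charcoal-stripped FBS medium.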

[16] = qHTS assay to identify small molecule agonists of the estrogen receptor alpha (ER-alpha) signaling pathway in the presence of an antagonist - cell viability counter screen (AID 1259386);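 further: cells exposed to compounds for 22 h at 37 °C before the viability read; nearly all actives have a fitted effect of over 30% in size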
Procedure, shortened: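 Cell viability in VM7Luc4E2 cells (endogenous full-length ER-alpha) measured by CellTiter-Fluor fluorescence in the same wells as the luciferase screen. Cells pre-cultured 5 days in charcoal-stripped serum, then treated 22 h with compounds at 15 concentrations plus 10.0nM ICI-182,780.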
Potency means the concentration at half of the fitted maximal effect; tags describe the fitted curve by direction and shape or compound fluorescence and quenching.

Q: Which Potency [1] does the source give for OCCN1CCN(CC/C=C2/c3ccccc3Sc3ccc(C(F)(F)F)cc32)CC1 here?
A: inconclusive: 33.5 µM [cytotoxic, single point]

Q: And the Potency [2]?
A: active: 10 µM

Q: What about the Potency [3] of the same compound?
A: active: 21.1 µM

Q: And the Potency [4]?
A: inconclusive: 2.37 µM [inhibitor, full curve, poor fit]

Q: What about the Potency [5] of the same compound?
A: active: 11.9 µM

Q: For COc1ccc(CCN2CCC(Nc3nc4ccccc4n3Cc3ccc(F)cc3)CC2)cc1, which Potency [1] is on record?
A: active: 17.6 µM and active: 21.1 µM

Q: And the Potency [2]?
A: inconclusive: 3.55 µM [activator, single point]

Q: And the Potency [6]?
A: inconclusive: 55.7 µM [cytotoxic, single point]

Q: And the Potency [7]?
A: active: 31.3 µM

Q: Which Potency [1] does the source give for CC1=CC(=O)c2ccccc2C1=O here?
A: inconclusive: 33.5 µM [cytotoxic, single point]

Q: And the Potency [8]?
A: inconclusive: 24.3 µM [inhibitor, full curve]

Q: What about the Potency [6] of the same compound?
A: active: 68.6 µM

Q: What about the Potency [4] of the same compound?
A: active: 24.3 µM and active: 16.8 µM

Q: What about the Potency [5] of the same compound?
A: inconclusive: 30.6 µM [full curve] and inconclusive: 29.8 µM [fluorescent]

Q: And the Potency [9]?
A: active: 24.3 µM and inconclusive: 26.6 µM [cytotoxic, partial curve]

Q: With Cc1oncc1C(=O)Nc1ccc(C(F)(F)F)cc1 as the compound, how does the Potency [1] read?
A: inactive

Q: What about the Potency [8] of the same compound?
A: active: 2.43 µM and active: 1.88 µM

Q: And the Potency [3]?
A: inconclusive: 68.6 µM [cytotoxic, single point]

Q: What about the Potency [10] of the same compound?
A: active: 61.1 µM

Q: And the Potency [11]?
A: active: 15.4 µM and active: 9.44 µM

Q: What about the Potency [4] of the same compound?
A: active: 27.3 µM

Q: What about the activity, negative = inhibition ([5]; at 42.5 µM (top of the series)) of the same compound?
A: inconclusive: 4.61%

Q: And the activity, negative = inhibition ([5]; at 92.4 µM (top of the series))?
A: inconclusive: 10%

Q: What about the Potency [12] of the same compound?
A: inconclusive: 34.4 µM [cytotoxic, partial curve]

Q: What about the Potency [9] of the same compound?
A: inconclusive: 34.4 µM [cytotoxic, partial curve, poor fit]

Q: For CCCCCCCCCCCCCCCCCCNC(=O)OC1CCN(C(=O)OC[C@H](COC(=O)N(Cc2cccc[n+]2CC)C(=O)c2ccccc2OC)OC)CC1, which Potency [1] is on record?
A: inconclusive: 29.8 µM [cytotoxic, single point]

Q: What about the Potency [2] of the same compound?
A: inconclusive: 22.4 µM [activator, single point]

Q: And the Potency [12]?
A: active: 26.6 µM

Q: What about the Potency [9] of the same compound?
A: inconclusive: 29.8 µM [cytotoxic]

Q: And the Potency [7]?
A: active: 29.8 µM

Q: With CSc1ccc2c(c1)C(N1CCN(C)CC1)Cc1ccccc1S2 (centres undefined) as the compound, how does the Potency [1] read?
A: inconclusive: 33.5 µM [cytotoxic, single point]

Q: What about the Potency [2] of the same compound?
A: inconclusive: 15.8 µM [activator, single point]

Q: What about the Potency [3] of the same compound?
A: active: 23.7 µM

Q: And the Potency [10]?
A: inconclusive: 26.6 µM [cytotoxic, partial curve]

Q: And the Potency [5]?
A: inconclusive: 7.5 µM [rising, partial curve]

Q: What about the Potency [13] of the same compound?
A: inconclusive: 33.5 µM [cytotoxic, single point]

Q: And the Potency [9]?
A: active: 16.8 µM

Q: With CCCCCCCCCCCCN(CCO)CCO as the compound, how does the Potency [1] read?
A: active: 60.9 µM

Q: And the Potency [14]?
A: inconclusive: 68.3 µM [inhibitor, single point]

Q: What about the Potency [3] of the same compound?
A: inconclusive: 68.3 µM [cytotoxic, single point]

Q: And the Potency [10]?
A: inconclusive: 68.3 µM [cytotoxic, single point]

Q: What about the Potency [5] of the same compound?
A: inconclusive: 68.3 µM [single point]

Q: Which Potency [1] does the source give for COc1ccc(CN2CCN(C(c3ccc(F)cc3)c3ccc(F)cc3)CC2)c(OC)c1OC here?
A: inconclusive: 26.6 µM [cytotoxic, partial curve]

Q: What about the Potency [2] of the same compound?
A: inconclusive: 3.98 µM [activator, single point]

Q: What about the Potency [3] of the same compound?
A: inconclusive: 23.7 µM [cytotoxic, partial curve]

Q: And the Potency [10]?
A: inconclusive: 29.8 µM [cytotoxic]

Q: What about the Potency [15] of the same compound?
A: inconclusive: 21.1 µM [rising, partial curve]

Q: And the Potency [5]?
A: inconclusive: 15 µM [rising, partial curve]

Q: And the Potency [13]?
A: active: 26.6 µM

Q: What about the Potency [9] of the same compound?
A: active: 10.6 µM

Q: What about the Potency [7] of the same compound?
A: inconclusive: 23.7 µM [falling, partial curve, poor fit]

Q: What about the Potency [16] of the same compound?
A: inconclusive: 23.7 µM [cytotoxic, partial curve]

Q: What does the source list for CN(C)CCCN1c2ccccc2Sc2ccc(Cl)cc21?
A: Potency [1]: active: 61.1 µM and inconclusive: 33.5 µM [cytotoxic, single point]; Potency [2]: active: 3.16 µM; Potency [8]: inconclusive: 30.6 µM [inhibitor, partial curve] and inconclusive: 21.1 µM [inhibitor, partial curve, poor fit]; Potency [10]: active: 61.1 µM and inconclusive: 13.3 µM [cytotoxic, partial curve]; Potency [5]: active: 30.6 µM and active: 21.1 µM; Potency [12]: active: 19.3 µM and active: 16.8 µM; Potency [7]: inconclusive: 68.6 µM and active: 26.6 µM
